# Laboratory results reported in the supplement of paper PMC8728848.
# This is one part of the list.
# B1: HPAIIITrx (Helix pomatia), Q1KM18 (protein)
# chain: MLFVTIISLGLLAIVHGQCALKTIAFSAAIDREQTFDANQVVIYDIVITNHGNAYDNSTGLFTAPVDGMYSFQLNLLTIKEKEGWLELVHNGQLKVSVYAKQDSTYDSSSNSVIIKMKEGDRVNVRAHKKSGLFGRDDELYNTFSGHFLSGL
# Experiments:
# Test in all cases: glycan array binding signal (z-score within array); higher = stronger binding
# Settings in all cases: glycan notation: IUPAC condensed, linker removed
# Fuc(a1-2)Gal = target: Fuc(a1-2)Gal
# Method in brief: (§1)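 Arrays were curated from the Consortium for Functional Glycomics database, 3228 in total, and kept only where the protein sequence was available. Binding is expressed as a within-array Z-score. This score was averaged across arrays of the same protein sequence at different concentrations or buffers and across linkers, and negative values can be read as non-binding.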
# Fuc(a1-2)Gal(b1-3)GalNAc = target: Fuc(a1-2)Gal(b1-3)GalNAc
# Method in brief: as §1
# [1] = target: Fuc(a1-2)Gal(b1-3)GalNAc(a1-3)[Fuc(a1-2)]Gal(b1-4)Glc
# Method in brief: as §1
# [2] = target: Fuc(a1-2)Gal(b1-3)GalNAc(a1-3)[Fuc(a1-2)]Gal(b1-4)GlcNAc
# Method in brief: as §1
# [3] = target: Fuc(a1-2)Gal(b1-3)GalNAc(b1-3)Gal
# Method in brief: as §1
# [4] = target: Fuc(a1-2)Gal(b1-3)GalNAc(b1-3)Gal(a1-4)Gal(b1-4)Glc
# Method in brief: as §1
# [5] = target: Fuc(a1-2)Gal(b1-3)GalNAc(b1-4)[Neu5Ac(a2-3)]Gal(b1-4)Glc
# Method in brief: as §1
# Fuc(a1-2)Gal(b1-3)GlcNAc = target: Fuc(a1-2)Gal(b1-3)GlcNAc
# Method in brief: as §1
# [6] = target: Fuc(a1-2)Gal(b1-3)GlcNAc(b1-2)Man(a1-3)[Fuc(a1-2)Gal(b1-3)GlcNAc(b1-2)Man(a1-6)]Man(b1-4)GlcNAc(b1-4)GlcNAc
# Method in brief: as §1
# [7] = target: Fuc(a1-2)Gal(b1-3)GlcNAc(b1-2)Man(a1-3)[Fuc(a1-2)Gal(b1-3)GlcNAc(b1-2)Man(a1-6)]Man(b1-4)GlcNAc(b1-4)[Fuc(a1-6)]GlcNAc
# Method in brief: as §1
# [8] = target: Fuc(a1-2)Gal(b1-3)GlcNAc(b1-3)Gal(b1-4)Glc
# Method in brief: as §1
# [9] = target: Fuc(a1-2)Gal(b1-3)GlcNAc(b1-3)GalNAc
# Method in brief: as §1
# [10] = target: Fuc(a1-2)Gal(b1-3)GlcNAc(b1-3)[Fuc(a1-2)Gal(b1-3)GlcNAc(b1-6)]GalNAc
# Method in brief: as §1
# [11] = target: Fuc(a1-2)Gal(b1-3)GlcNAc(b1-3)[Gal(b1-4)GlcNAc(b1-6)]Gal(b1-4)Glc
# Method in brief: as §1
# [12] = target: Fuc(a1-2)Gal(b1-3)GlcNAc(b1-3)[Gal(b1-4)[Fuc(a1-3)]GlcNAc(b1-6)]Gal(b1-4)Glc
# Method in brief: as §1
# [13] = target: Fuc(a1-2)Gal(b1-3)GlcNAc(b1-3)[Neu5Ac(a2-6)Gal(b1-4)GlcNAc(b1-6)]Gal(b1-4)Glc
# Method in brief: as §1
# [14] = target: Fuc(a1-2)Gal(b1-3)GlcNAc6S
# Method in brief: as §1
# [15] = target: Fuc(a1-2)Gal(b1-3)[Fuc(a1-4)]GlcNAc
# Method in brief: as §1
# [16] = target: Fuc(a1-2)Gal(b1-3)[Fuc(a1-4)]GlcNAc(b1-2)Man(a1-3)[Fuc(a1-2)Gal(b1-3)[Fuc(a1-4)]GlcNAc(b1-2)Man(a1-3)]Man(b1-4)GlcNAc(b1-4)GlcNAc
# Method in brief: as §1
# [17] = target: Fuc(a1-2)Gal(b1-3)[Fuc(a1-4)]GlcNAc(b1-2)Man(a1-3)[Fuc(a1-2)Gal(b1-3)[Fuc(a1-4)]GlcNAc(b1-2)Man(a1-6)]Man(b1-4)GlcNAc(b1-4)GlcNAc
# Method in brief: as §1
# [18] = target: Fuc(a1-2)Gal(b1-3)[Fuc(a1-4)]GlcNAc(b1-2)Man(a1-3)[Fuc(a1-2)Gal(b1-3)[Fuc(a1-4)]GlcNAc(b1-2)Man(a1-6)]Man(b1-4)GlcNAc(b1-4)[Fuc(a1-6)]GlcNAc(b1-4)[Fuc(a1-6)]GlcNAc
# Method in brief: as §1
# [19] = target: Fuc(a1-2)Gal(b1-3)[Fuc(a1-4)]GlcNAc(b1-3)[Fuc(a1-3)[Gal(b1-4)]GlcNAc(b1-6)]Gal(b1-4)Glc
# Method in brief: as §1
# [20] = target: Fuc(a1-2)Gal(b1-3)[Fuc(a1-4)]GlcNAc(b1-3)[Gal(b1-4)GlcNAc(b1-6)]Gal(b1-4)Glc
# Method in brief: as §1
# [21] = target: Fuc(a1-2)Gal(b1-4)Fuc(a1-3)]GlcNAc(b1-2)Man(a1-3)[Fuc(a1-2)Gal(b1-4)[Fuc(a1-3)]GlcNAc(b1-2)Man(a1-6)]Man(b1-4)GlcNAc(b1-4)GlcNAc
# Method in brief: as §1
# Fuc(a1-2)Gal(b1-4)Glc = target: Fuc(a1-2)Gal(b1-4)Glc
# Method in brief: as §1
# Fuc(a1-2)Gal(b1-4)Glc6S = target: Fuc(a1-2)Gal(b1-4)Glc6S
# Method in brief: as §1
# Fuc(a1-2)Gal(b1-4)GlcNAc = target: Fuc(a1-2)Gal(b1-4)GlcNAc
# Method in brief: as §1
# [22] = target: Fuc(a1-2)Gal(b1-4)GlcNAc(b1-2)Man
# Method in brief: as §1
# [23] = target: Fuc(a1-2)Gal(b1-4)GlcNAc(b1-2)Man(a1-3)[Fuc(a1-2)Gal(b1-4)GlcNAc(b1-2)Man(a1-6)]Man(b1-4)GlcNAc(b1-4)GlcNAc
# Method in brief: as §1
# [24] = target: Fuc(a1-2)Gal(b1-4)GlcNAc(b1-2)Man(a1-3)[Fuc(a1-2)Gal(b1-4)GlcNAc(b1-2)Man(a1-6)]Man(b1-4)GlcNAc(b1-4)[Fuc(a1-6)]GlcNAc
# Method in brief: as §1
binder,measurement,setting,value
B1,glycan array binding signal (z-score),Fuc(a1-2)Gal,-0.193
same,glycan array binding signal (z-score),Fuc(a1-2)Gal(b1-3)GalNAc,0.423
same,glycan array binding signal (z-score),[1],-0.232
same,glycan array binding signal (z-score),[2],0.09
same,glycan array binding signal (z-score),[3],2.9
same,glycan array binding signal (z-score),[4],0.822
same,glycan array binding signal (z-score),[5],-0.4
same,glycan array binding signal (z-score),Fuc(a1-2)Gal(b1-3)GlcNAc,0.164
same,glycan array binding signal (z-score),[6],3.03
same,glycan array binding signal (z-score),[7],-0.136
same,glycan array binding signal (z-score),[8],-0.184
same,glycan array binding signal (z-score),[9],-0.247
same,glycan array binding signal (z-score),[10],-0.117
same,glycan array binding signal (z-score),[11],-0.349
same,glycan array binding signal (z-score),[12],-0.143
same,glycan array binding signal (z-score),[13],-0.416
same,glycan array binding signal (z-score),[14],-0.244
same,glycan array binding signal (z-score),[15],0.614
same,glycan array binding signal (z-score),[16],0.629
same,glycan array binding signal (z-score),[17],3.07
same,glycan array binding signal (z-score),[18],-0.327
same,glycan array binding signal (z-score),[19],-0.503
same,glycan array binding signal (z-score),[20],-0.355
same,glycan array binding signal (z-score),[21],0.305
same,glycan array binding signal (z-score),Fuc(a1-2)Gal(b1-4)Glc,-0.056
same,glycan array binding signal (z-score),Fuc(a1-2)Gal(b1-4)Glc6S,-0.178
same,glycan array binding signal (z-score),Fuc(a1-2)Gal(b1-4)GlcNAc,-0.3
same,glycan array binding signal (z-score),[22],-0.136
same,glycan array binding signal (z-score),[23],-0.108
same,glycan array binding signal (z-score),[24],0.33
